# Measured values from the supplement of paper PMC8728848.
# The other results are listed elsewhere or left out.
# B1: Pp2-A2 (Arabidopsis thaliana), Q07098 (protein)
# chain: MPSNGDLDRQIEQLMECKPLSEADVRTLCDQARAILVEEYNVQPVKCPVTVCGDIHGQFYDLIELFRIGGNAPDTNYLFMGDYVDRGYYSVETVSLLVALKVRYRDRLTILRGNHESRQITQVYGFYDECLRKYGNANVWKYFTDLFDYLPLTALIESQVFCLHGGLSPSLDTLDNIRSLDRIQEVPHEGPMCDLLWSDPDDRCGWGISPRGAGYTFGQDIAAQFNHNNGLSLISRAHQLVMEGFNWCQDKNVVTVFSAPNYCYRCGNMAAILEIGENMEQNFLQFDPAPRQVEPDTTRKTPDYFL
# Tests used:
# Test in all cases: glycan array binding signal (z-score within array); higher = stronger binding
# Conditions in all cases: glycan notation: IUPAC condensed, linker removed
# [1] = target: Neu5Ac(a2-3)Gal(b1-3)GlcNAc(b1-3)Gal(b1-3)GlcNAc
# How it was run: (§1)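 The Consortium for Functional Glycomics database supplied 3228 glycan arrays, of which those lacking an available protein sequence were dropped. The binding signal, a within-array Z-score, was averaged across arrays of the same protein sequence and across linkers. Negative scores can be read as non-binding.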
# [2] = target: Neu5Ac(a2-3)Gal(b1-3)GlcNAc(b1-3)Gal(b1-4)GlcNAc
# How it was run: as §1
# [3] = target: Neu5Ac(a2-3)Gal(b1-3)GlcNAc(b1-3)GalNAc
# How it was run: as §1
# [4] = target: Neu5Ac(a2-3)Gal(b1-3)GlcNAc6S
# How it was run: as §1
# [5] = target: Neu5Ac(a2-3)Gal(b1-3)[Fuc(a1-4)]GlcNAc
# How it was run: as §1
# [6] = target: Neu5Ac(a2-3)Gal(b1-3)[Fuc(a1-4)]GlcNAc(b1-3)Gal(b1-3)[Fuc(a1-4)]GlcNAc
# How it was run: as §1
# [7] = target: Neu5Ac(a2-3)Gal(b1-3)[Fuc(a1-4)]GlcNAc(b1-3)Gal(b1-4)[Fuc(a1-3)]GlcNAc
# How it was run: as §1
# [8] = target: Neu5Ac(a2-3)Gal(b1-3)[Neu5Ac(a2-3)Gal(b1-4)]GlcNAc
# How it was run: as §1
# [9] = target: Neu5Ac(a2-3)Gal(b1-3)[Neu5Ac(a2-6)]GalNAc
# How it was run: as §1
# Neu5Ac(a2-3)Gal(b1-4)Glc = target: Neu5Ac(a2-3)Gal(b1-4)Glc
# How it was run: as §1
# [10] = target: Neu5Ac(a2-3)Gal(b1-4)GlcNAc
# How it was run: as §1
# [11] = target: Neu5Ac(a2-3)Gal(b1-4)GlcNAc(b1-2)Man(a1-3)[GlcNAc(b1-2)Man(b1-4)GlcNAc(b1-2)Man(a1-6)]Man(b1-4)GlcNAc(b1-4)GlcNAc
# How it was run: as §1
# [12] = target: Neu5Ac(a2-3)Gal(b1-4)GlcNAc(b1-2)Man(a1-3)[Neu5Ac(a2-6)Gal(b1-4)GlcNAc(b1-2)Man(a1-6)]Man(b1-4)GlcNAc(b1-4)GlcNAc
# How it was run: as §1
# [13] = target: Neu5Ac(a2-3)Gal(b1-4)GlcNAc(b1-3)Gal(b1-3)GlcNAc
# How it was run: as §1
# [14] = target: Neu5Ac(a2-3)Gal(b1-4)GlcNAc(b1-3)Gal(b1-4)GlcNAc
# How it was run: as §1
# [15] = target: Neu5Ac(a2-3)Gal(b1-4)GlcNAc(b1-3)Gal(b1-4)GlcNAc(b1-3)Gal(b1-4)GlcNAc
# How it was run: as §1
# [16] = target: Neu5Ac(a2-3)Gal(b1-4)GlcNAc(b1-3)Gal(b1-4)[Fuc(a1-3)]GlcNAc
# How it was run: as §1
# [17] = target: Neu5Ac(a2-3)Gal(b1-4)GlcNAc(b1-3)GalNAc
# How it was run: as §1
# [18] = target: Neu5Ac(a2-3)Gal(b1-4)GlcNAc(b1-6)[Gal(b1-3)]GalNAc
# How it was run: as §1
# [19] = target: Neu5Ac(a2-3)Gal(b1-4)GlcNAc(b1-6)[Neu5Ac(a2-3)Gal(b1-3)]GalNAc
# How it was run: as §1
# [20] = target: Neu5Ac(a2-3)Gal(b1-4)GlcNAc6S
# How it was run: as §1
# [21] = target: Neu5Ac(a2-3)Gal(b1-4)[Fuc(a1-3)]GlcNAc
# How it was run: as §1
# [22] = target: Neu5Ac(a2-3)Gal(b1-4)[Fuc(a1-3)]GlcNAc(b1-3)Gal
# How it was run: as §1
# [23] = target: Neu5Ac(a2-3)Gal(b1-4)[Fuc(a1-3)]GlcNAc(b1-3)Gal(b1-4)GlcNAc
# How it was run: as §1
# [24] = target: Neu5Ac(a2-3)Gal(b1-4)[Fuc(a1-3)]GlcNAc(b1-3)Gal(b1-4)[Fuc(a1-3)]GlcNAc(b1-3)Gal(b1-4)[Fuc(a1-3)]GlcNAc
# How it was run: as §1
# [25] = target: Neu5Ac(a2-3)Gal(b1-4)[Fuc(a1-3)]GlcNAc(b1-3)GalNAc
# How it was run: as §1
# [26] = target: Neu5Ac(a2-3)Gal(b1-4)[Fuc(a1-3)]GlcNAc(b1-6)[Gal(b1-3)]GalNAc
# How it was run: as §1
# [27] = target: Neu5Ac(a2-3)Gal(b1-4)[Fuc(a1-3)]GlcNAc(b1-6)[Neu5Ac(a2-3)Gal(b1-3)]GalNAc
# How it was run: as §1
# [28] = target: Neu5Ac(a2-3)Gal(b1-4)[Fuc(a1-3)]GlcNAc6S
# How it was run: as §1
# [29] = target: Neu5Ac(a2-3)Gal6S(b1-4)GlcNAc
# How it was run: as §1
# [30] = target: Neu5Ac(a2-3)Gal6S(b1-4)[Fuc(a1-3)]GlcNAc
# How it was run: as §1
# Neu5Ac(a2-3)GalNAc = target: Neu5Ac(a2-3)GalNAc
# How it was run: as §1
# [31] = target: Neu5Ac(a2-3)GalNAc(b1-4)GlcNAc
# How it was run: as §1
# [32] = target: Neu5Ac(a2-3)[GalNAc(b1-4)]Gal(b1-4)Glc
# How it was run: as §1
# [33] = target: Neu5Ac(a2-3)[GalNAc(b1-4)]Gal(b1-4)GlcNAc
# How it was run: as §1
# [34] = target: Neu5Ac(a2-3)[GalNAc(b1-4)]Gal(b1-4)GlcNAc(b1-3)GalNAc
# How it was run: as §1
# [35] = target: Neu5Ac(a2-3)[Neu5Ac(a2-6)]GalNAc
# How it was run: as §1
# Neu5Ac(a2-6)Gal = target: Neu5Ac(a2-6)Gal
# How it was run: as §1
# Neu5Ac(a2-6)Gal(b1-4)Glc = target: Neu5Ac(a2-6)Gal(b1-4)Glc
# How it was run: as §1
# [36] = target: Neu5Ac(a2-6)Gal(b1-4)GlcNAc
# How it was run: as §1
binder,measurement,setting,value
B1,glycan array binding signal (z-score),[1],0.247
same,glycan array binding signal (z-score),[2],-0.454
same,glycan array binding signal (z-score),[3],-0.355
same,glycan array binding signal (z-score),[4],0.472
same,glycan array binding signal (z-score),[5],-0.63
same,glycan array binding signal (z-score),[6],0.149
same,glycan array binding signal (z-score),[7],0.82
same,glycan array binding signal (z-score),[8],0.233
same,glycan array binding signal (z-score),[9],0.589
same,glycan array binding signal (z-score),Neu5Ac(a2-3)Gal(b1-4)Glc,0.278
same,glycan array binding signal (z-score),[10],-0.425
same,glycan array binding signal (z-score),[11],-0.664
same,glycan array binding signal (z-score),[12],-0.66
same,glycan array binding signal (z-score),[13],0.119
same,glycan array binding signal (z-score),[14],-0.099
same,glycan array binding signal (z-score),[15],-0.341
same,glycan array binding signal (z-score),[16],-0.037
same,glycan array binding signal (z-score),[17],-0.617
same,glycan array binding signal (z-score),[18],-0.77
same,glycan array binding signal (z-score),[19],-0.303
same,glycan array binding signal (z-score),[20],0.606
same,glycan array binding signal (z-score),[21],0.049
same,glycan array binding signal (z-score),[22],-0.398
same,glycan array binding signal (z-score),[23],1.57
same,glycan array binding signal (z-score),[24],0.136
same,glycan array binding signal (z-score),[25],4.64
same,glycan array binding signal (z-score),[26],1.98
same,glycan array binding signal (z-score),[27],1.98
same,glycan array binding signal (z-score),[28],-0.315
same,glycan array binding signal (z-score),[29],0.103
same,glycan array binding signal (z-score),[30],0.82
same,glycan array binding signal (z-score),Neu5Ac(a2-3)GalNAc,-0.344
same,glycan array binding signal (z-score),[31],-0.716
same,glycan array binding signal (z-score),[32],-0.213
same,glycan array binding signal (z-score),[33],-0.215
same,glycan array binding signal (z-score),[34],0.827
same,glycan array binding signal (z-score),[35],-0.272
same,glycan array binding signal (z-score),Neu5Ac(a2-6)Gal,-0.338
same,glycan array binding signal (z-score),Neu5Ac(a2-6)Gal(b1-4)Glc,-0.148
same,glycan array binding signal (z-score),[36],-0.266
